In all, about 48,000 compounds went through this assay and about 1,200 (2.5%) were called active. Inconclusive results (about 2%) are left out.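 The calls were made as follows: active = activation of at least 60% and not above a set upper limit (about 1 call in 100 departs from these limits); inconclusive = activation of 40% to 60%, or above that upper limit; inactive = activation under 40%.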 The list shows a part of the results.
Target: Probable G-protein coupled receptor 32 (Homo sapiens) (UniProt O75388)
Assay: qHTS for Agonists of Human Resolvin D1 Receptor DRV1; also: 0% is about no effect
Settings: CHO-K1 GPR32 beta-arrestin PathHunter luminescence, 90 min; at 76.9 µM; active compounds read high; zero percent set by DMSO-only wells
How it was run: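 Readings come from a cell-based beta-arrestin complementation format: CHO-K1 GPR32 stable cells (2,500/well) treated 90 min with compounds, then beta-Gal substrate added for 1 h before chemiluminescence imaging.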

UniProt O75388, sequence (O75388 whole entry, looked up): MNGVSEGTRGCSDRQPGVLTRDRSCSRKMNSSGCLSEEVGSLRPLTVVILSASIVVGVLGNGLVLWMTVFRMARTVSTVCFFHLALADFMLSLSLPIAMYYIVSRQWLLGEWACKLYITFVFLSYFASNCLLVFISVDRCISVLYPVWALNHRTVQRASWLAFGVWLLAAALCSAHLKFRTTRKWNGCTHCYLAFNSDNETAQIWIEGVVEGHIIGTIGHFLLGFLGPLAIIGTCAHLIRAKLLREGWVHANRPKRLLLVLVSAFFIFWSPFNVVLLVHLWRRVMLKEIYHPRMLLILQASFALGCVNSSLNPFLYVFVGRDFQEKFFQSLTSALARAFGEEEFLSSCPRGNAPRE

activation, inactive:
COc1ccc(NC(=O)c2cc(C(C)=O)n3ccccc23)cc1 -10.6%, Cc1ccc2nc(NC(=O)c3nc(SCc4ccccc4F)ncc3Cl)sc2c1 -6.04%, CSc1ncc(Cl)c(C(=O)Nc2cc(C(F)(F)F)ccc2Cl)n1 -8%, COc1cc2c(=O)n(Cc3ccco3)c(=O)n(CC(=O)Nc3ccc(F)cc3)c2cc1OC -9.91%, CCOc1cc2[nH]c(=O)n(Cc3ccc(C(=O)N4CCN(c5ccccc5)CC4)cc3)c(=O)c2cc1OCC -12.7%, O=C(CSc1nc(=O)n(Cc2cccnc2)c2c1CCC2)Nc1cccc(Cl)c1 -1.38%, O=C(O)c1ccc(NCc2nc3ccccc3n2CCOc2ccccc2Cl)cc1 -8.01%, Cc1nc(-c2ccc(Cl)cc2)sc1CCNC(=O)C(=O)Nc1ccc2c(c1)OCCO2 15%, CCOC(=O)N1CCC(NC(=O)c2cnn(-c3ccc(F)cc3)c2-n2cccc2)CC1 -5.39%, COc1ccc(N(C)C(=O)c2nn(-c3ccc(C)cc3)c(=O)n(C)c2=O)c(OC)c1 -17.7%, Cc1cc(C)cc(NC(=O)N2CCC(C(N)=O)(N3CCCCC3)CC2)c1 20.8%, Cc1ccc(-c2nn(-c3ccc(F)cc3F)c3c2cnc2ccc(F)cc23)cc1 2.71%, COc1ccc(CNC(=O)CC(C)n2nc(C)cc2C)cc1 (stereo not drawn) 2.4%, CCN(CC)c1cc(C)c2cc(NC(=O)/C=C/c3ccccc3Cl)ccc2n1 -26.2%, COc1ccc(N2CC(NC(=O)C(=O)c3c[nH]c4ccccc34)CC2=O)cc1 (stereo not drawn) -3.25%, CC(C)Oc1ccc(C(=O)N2CCN(c3nc4c(F)cc(F)cc4s3)CC2)cc1 -1.63%, O=c1c(N2CCN(c3ccccc3)CC2)csc2ccc(Cl)cc12 -40.4%, O=C(CCSCc1cccc(Cl)c1)NCc1ccccc1Cl -14.5%, O=C(CSc1ncc2c(n1)-c1cc(Cl)ccc1N(Cc1ccccc1)S2(=O)=O)Nc1ccc(F)cc1F 0.997%, CCOCCn1ccc2c(OCC(=O)NCc3ccc(F)cc3)cccc2c1=O -11.2%, CCCCn1cc(S(=O)(=O)c2ccccc2)c(=O)c2cc(F)c(N3CCN(CCC)CC3)cc21 3.69%, CCN1c2ccccc2-n2cccc2C12CCN(C(=O)Nc1ccccc1Br)CC2 -30.3%, COc1ccc(NCc2cc3cc4c(cc3n(CC(=O)Nc3cccc(F)c3)c2=O)OCO4)cc1 -51.1%
